Hit rate of the full screen: of about 48,000 compounds, about 550 (1.1%) were called active. Roughly 4% stayed inconclusive and do not appear here. Rule as the data show it: active = potency below about 15 µM; inconclusive = mostly about 16 µM to 33 µM; inactive = weaker than that. Some of the results follow.
Target: Lysosomal acid glucosylceramidase (Homo sapiens) (UniProt P04062)
Test: Glucocerebrosidase;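 also: the screen sought inhibitors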
Conditions: purified enzyme, resorufin glucoside fluorescence (screen aimed at inhibitors), 20 min
Procedure, shortened: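 Wild-type enzyme at 0.2 nM final in 50mM citric acid/KH2PO4, 10mM sodium taurocholate, 0.01% tween-20, pH 5.9, with resorufin beta-D-glucopyranoside at 30 uM final. Compounds titrated, 20 min at RT, red fluorescence read; AC50 from titration.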
Potency is read from the fitted curve at half-maximal effect.

Chain of UniProt P04062 (P04062 whole entry, looked up): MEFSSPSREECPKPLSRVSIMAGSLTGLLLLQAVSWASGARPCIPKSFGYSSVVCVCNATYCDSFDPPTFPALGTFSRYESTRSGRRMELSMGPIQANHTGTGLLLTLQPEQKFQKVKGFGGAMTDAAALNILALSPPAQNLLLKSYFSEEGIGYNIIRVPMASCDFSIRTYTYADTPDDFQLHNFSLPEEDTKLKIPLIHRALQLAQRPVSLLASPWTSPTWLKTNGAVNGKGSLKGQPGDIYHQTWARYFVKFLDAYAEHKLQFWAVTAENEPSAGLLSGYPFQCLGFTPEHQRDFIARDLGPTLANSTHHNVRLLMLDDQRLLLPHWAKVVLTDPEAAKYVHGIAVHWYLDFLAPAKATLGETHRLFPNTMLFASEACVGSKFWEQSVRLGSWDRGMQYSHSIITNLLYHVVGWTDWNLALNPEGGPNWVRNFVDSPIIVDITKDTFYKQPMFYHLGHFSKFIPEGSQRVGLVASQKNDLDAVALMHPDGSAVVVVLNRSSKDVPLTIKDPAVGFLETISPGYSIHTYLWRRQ

Potency, inactive:
COCC(C)n1c(SCC(=O)N2CCCCC2)nc2ccccc2c1=O (stereo not drawn) > 76.9 µM
CCOCCCNc1ccc(-c2ccccc2)nn1 > 76.9 µM
OCCNCc1ccc(OC2CCCC2)cc1 > 76.9 µM
COc1cc(C2C(C(C)=O)=C(C)Nc3ncnn32)ccc1O (stereo not drawn) > 76.9 µM
CCN(CC)CCCNC(=O)c1c(O)c2c([nH]c1=O)CCCC2 > 76.9 µM
CCn1c(COc2ccccc2C)nnc1SCC(=O)NC1CCCC1 > 76.9 µM
Cc1ccc2nc3c(cc2c1)c(NC(=O)c1cccnc1)nn3C
CS(=O)(=O)N(CC(=O)N1CCN(Cc2ccccc2)CC1)C1CCCCC1 > 76.9 µM
CCn1c(SCC(=O)C(C)(C)C)nnc1-c1ccccn1 > 76.9 µM
CCSc1ccc2nnc(-c3cccc(F)c3)n2n1 > 76.9 µM
COc1ccccc1CN1C(=O)CCC1(C)C(=O)NC1CCCCCC1 (stereo not drawn) > 76.9 µM
Cc1cc(NC(=O)c2cccc(N3C(=O)CCC3=O)c2)no1 > 76.9 µM
COc1ccccc1N1CCN(c2cc(=O)n(-c3ccc(Br)cc3)c(=O)[nH]2)CC1 > 76.9 µM
COc1nc(N(c2ccccc2)c2ccccc2)nc(-n2ccnc2)n1 > 76.9 µM
Cc1cc(NC(=O)Cn2nnc3sc4c(c3c2=O)CCCC4)no1 > 76.9 µM
COc1ccccc1Oc1c(C)oc2cc(OC(=O)c3ccco3)ccc2c1=O > 76.9 µM
C=C(C)Cn1c(=O)c2c(nc3n2CCN3c2cccc(Cl)c2C)n(C)c1=O > 76.9 µM
CCn1ccnc1C(O)c1ccc(N(C)C)cc1 (stereo not drawn) > 76.9 µM
CC(=O)c1cc(-c2nc3ccccc3n2C)n(C)c1 > 76.9 µM
CCCCn1cnc2c(cnn2-c2ccc(F)cc2)c1=O > 76.9 µM
COC(=O)c1cc2ccsc2n1CC(=O)Nc1cc(C)cc(C)c1
CCOC(=O)Cc1csc(SCC(=O)Nc2sc3c(c2C(N)=O)CCC3)n1 > 76.9 µM
Cc1cn2c(nc1=O)OC1C(O)C(COC(=O)c3ccccc3)OC12 (stereo not drawn) > 76.9 µM
COCCN(C(=O)Cc1cccs1)c1nnc(-c2ccncc2)s1 > 76.9 µM
COc1ccc(OC)c(S(=O)(=O)N2CCC(C(=O)NCCc3ccc(OC)c(OC)c3)CC2)c1 > 76.9 µM
Cc1cc(C)n2nc(C(=O)N3CCOCC3)nc2n1 > 76.9 µM
CN(C)c1nc(N)nc(Cn2ccnc2)n1 > 76.9 µM
CC(C)OCCCNS(=O)(=O)c1ccc2c(c1)OCCO2 > 76.9 µM
O=C1c2sc3nc4c(c(=O)n3c2C(=O)N1c1ccccc1)CCC4 > 76.9 µM
COC(=O)CCC(=O)Nc1cccc(Cl)c1 > 76.9 µM
Cc1ccc(-c2nnc(SCC#N)n2N)cc1 > 76.9 µM
O=C1NC(=O)c2c(NC(=O)C3CCCO3)cccc21 (stereo not drawn) > 76.9 µM
CC(C)Oc1nc(-c2ccccc2O)nc2ccccc12 > 76.9 µM
COc1ccc(N2C(=O)C(Cl)=C(Nc3c(C)n(C)n(-c4ccccc4)c3=O)C2=O)cc1 > 76.9 µM
COC(=O)C(Nc1nccs1)(OC)C(F)(F)F (stereo not drawn) > 76.9 µM
CC(=O)N1CCc2cc(S(=O)(=O)NC(CC(C)C)C(=O)Nc3ccc4c(c3)OCCO4)ccc21 (stereo not drawn) > 76.9 µM
CCOc1ccc(-c2nc(-c3ccc(OC)cc3)no2)cc1OCC > 76.9 µM
O=C(COc1ncnc2ccccc12)N1CCN(S(=O)(=O)c2ccc(Cl)cc2)CC1 > 76.9 µM
CCOc1ccc(/C(O)=C2\C(=O)C(=O)N(CCN(C)C)C2c2cccc(OC)c2OC)cc1Cl (stereo not drawn) > 76.9 µM
Cc1ccccc1CSc1nc2c(c(=O)[nH]1)CCC2 > 76.9 µM
O=C(OCn1nnc2ccccc2c1=O)c1ccc(S(=O)(=O)N2CCOCC2)cc1 > 76.9 µM
Cc1[nH]nc2c1C(c1ccccn1)N(c1ccc(Br)cc1)C2=O (stereo not drawn) > 76.9 µM
c1ccc(-c2n[nH]c3ccccc23)cc1 > 76.9 µM
CCc1ccc(CN(C)CCc2ccccn2)cc1 > 76.9 µM
COCCn1nnnc1SCC(=O)N1CCCCC1 > 76.9 µM
Cc1ccccc1CN1CCN(S(=O)(=O)c2ccc(F)cc2)CC1 > 76.9 µM
c1cnc(NC2C3CC4CC(C3)CC2C4)nc1 (stereo not drawn) > 76.9 µM
COc1cccc(CNC(=O)C2CCCN(c3nn4c(=O)cc(C)nc4s3)C2)c1 (stereo not drawn) > 76.9 µM
CN(C)CCCOC(=O)c1cc2ccccc2o1 > 76.9 µM
COC(=O)c1ccc(N2CCN(C)CC2)c(NC(=O)c2cc3ccccc3o2)c1 > 76.9 µM
C=CCn1c(C)cc(C(=O)CSc2nnc(-c3cccc(S(=O)(=O)N(CC)CC)c3)o2)c1C > 76.9 µM
Cc1cc2cc(CNC(=O)c3cccs3)ccc2n1C > 76.9 µM
COc1ccc(-n2cnnc2SCC(=O)c2ccc(S(=O)(=O)N3CCOCC3)cc2)cc1 > 76.9 µM
O=C(NC1CCCCCC1)c1cc2n(n1)C(C(F)(F)F)CC(c1ccco1)N2 (stereo not drawn) > 76.9 µM
CN1CCN(CCCNC(=O)CCCOc2cc(=O)n(C)c3ccccc23)CC1 > 76.9 µM
O=C(c1cccn2c(=O)c3cc(Br)ccc3nc12)N1CCN(c2ccccn2)CC1 > 76.9 µM
CC1CCN(CCCNC(=O)C2CCC(=O)N2C2CCCC2)CC1 (stereo not drawn) > 76.9 µM
O=S(=O)(NC1CC1)c1ccc(S(=O)(=O)N2CCN3CCCC3C2)cc1 (stereo not drawn) > 76.9 µM
CCCNC(=O)c1cccc(Cn2nc(C)c(Br)c2C)c1 > 76.9 µM
CCOC(=O)Cn1c(=O)c2c(nc(Br)n2Cc2ccccc2)n(C)c1=O > 76.9 µM
CCOC(=O)N1CCC(NC(=O)C(C)n2c3ccccc3c3cnn(C)c(=O)c32)CC1 (stereo not drawn) > 76.9 µM
Cc1ccccc1C(=O)N(C)Cc1ccccc1 > 76.9 µM
O=C(CCC(=O)c1cccs1)NCc1ccccc1 > 76.9 µM
COc1ccc(CNCCNC(=O)c2nonc2N)cc1OC > 76.9 µM
Cc1ccc2c(c1)cc(CN(Cc1ccco1)C(=O)COc1ccccc1)c1nnnn12 > 76.9 µM
CCOC(=O)N1CCN(S(=O)(=O)c2cc(C)c(C)cc2C)CC1 > 76.9 µM
O=C(CCn1c(=O)oc2ccccc21)n1c(=O)oc2ccccc21 > 76.9 µM
Cc1ccc2c(c1)-c1c(cnn1CC(=O)O)CO2 > 76.9 µM
O=c1oc(-c2cccs2)nc2scc(-c3cccs3)c12 > 76.9 µM
COC(=O)c1cc(S(=O)(=O)NC2CCN(Cc3ccccc3)CC2)cn1C > 76.9 µM
O=C(Nc1ccon1)c1cnc2sccn2c1=O > 76.9 µM
Cc1ccccc1OCc1nc2ccccc2c(=O)n1/N=C/c1ccco1 > 76.9 µM
Cc1cc(C)nc(N(C#N)Cc2ccc(Br)cc2)n1 > 76.9 µM
CCNc1nc(NC#N)nc(SCC(=O)OCC)n1 > 76.9 µM
O/N=C1\CC/C(=N\O)c2nn(-c3ccc(Cl)cc3Cl)nc21 > 76.9 µM
COc1cccc(C2C(C#N)=C(N)Oc3cc(C)n(Cc4ccccn4)c(=O)c32)c1OC (stereo not drawn) > 76.9 µM
COC(=O)C1C(=O)NC(SC)=C(C#N)C1c1ccccc1 (stereo not drawn) > 76.9 µM
O=C(NCc1ccco1)c1ccc2c(c1)C(=O)c1ccccc1-2 > 76.9 µM
CCOC(=O)N1CCC(N2CCN(S(=O)(=O)CC)CC2)CC1 > 76.9 µM
COc1cc(CNC(=O)c2ccc(Cn3nc(C)c(Cl)c3C)o2)cc(OC)c1 > 76.9 µM
COc1ccc(S(=O)(=O)N2CCN(c3cc(-c4ccccc4)nc4ncnn34)CC2)cc1 > 76.9 µM
N#CCCN(Cc1cccnc1)C(=O)c1ccc(S(=O)(=O)N2CCOCC2)cc1 > 76.9 µM
CC1CCCCC1NC(=O)CSc1nnc(N)s1 (stereo not drawn) > 76.9 µM
CSc1nsc(SC)c1NC(=O)OCC1CCCO1 (stereo not drawn) > 76.9 µM
O=C(CC(Sc1ccccc1)c1cccs1)c1ccco1 (stereo not drawn) > 76.9 µM
CCOC(=O)c1sc2nc(SCC#N)n(CC3CCCO3)c(=O)c2c1C (stereo not drawn) > 76.9 µM
C/C(=C\C(=O)c1ccc(C)o1)Nc1ccc(C(=O)O)cc1C > 76.9 µM
CCC(OC(=O)c1cc2sccc2n1C)C(=O)NCC1CCCO1 (stereo not drawn) > 76.9 µM
O=C(c1cccs1)N1CCN(S(=O)(=O)N2CCCCC2)CC1 > 76.9 µM
CC(C)OC(=O)CSc1nnc(-c2ccccn2)n1-c1ccccc1 > 76.9 µM
CCS(=O)(=O)c1nnnn1-c1ccccc1S(C)(=O)=O > 76.9 µM
COC(=O)c1ccc2c(=O)n(CCN3CCOCC3)c(SCC(=O)NC3CCCCC3)nc2c1 > 76.9 µM
CCCNC(=O)c1c(N)n(-c2ccc3c(c2)OCO3)c2nc3ccccc3nc12 > 76.9 µM
